# Experimental data reported in the supplement of paper PMC4967469.
# By IC50 is meant the dose at which the fit gives 50% viability; fits outside the tested doses are given as limits. AUC is the area under the same curve over the 256-fold range up to the top dose, as a fraction: 1 means no effect, lower means more sensitive. For some of these results: A top dose marked as inferred was calculated from the reported fits.
# Experiments:
# Assay in all cases: Viability of human cancer cell lines after 72 h of drug (GDSC screen)
# [1] = compound: COc1cc([C@@H]2c3cc4c(cc3[C@@H](O[C@@H]3O[C@@H]5CO[C@@H](C)O[C@H]5[C@H](O)[C@H]3O)[C@H]3COC(=O)[C@H]23)OCO4)cc(OC)c1O [Etoposide]; conditions: top dose 16 µM
# Description: (§1)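 Human cancer cell lines in 384-well plates, medium with 10% serum, drug for 72 h over a 256-fold dose range (nine 2-fold or five 4-fold steps up to the top dose). Adherent lines were fixed and stained with the nucleic acid dye Syto60, suspension lines read with resazurin; signal relative to control wells, capped at 0 and 100%. One two-parameter sigmoid per drug and line, fitted in a mixed model over all curves with the slope shared within a line.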
# [2] = compound: O=C(O)c1ccc(-c2c[nH]c3ncc(-c4ccccc4)cc23)cc1C1CCCC1 [GSK-650394]; conditions: top dose 16 µM; top dose inferred
# Description: as §1
# [3] = compound: COc1cc(C(=O)NC2CCN(C)CC2)ccc1Nc1ncc2c(n1)N(C1CCCC1)C(C)CC(=O)N2C [NPK76-II-72-1]; conditions: top dose 10.24 µM; top dose inferred
# Description: as §1
# [4] = compound: C=C(c1ccc(C(=O)O)cc1)c1cc2c(cc1C)C(C)(C)CCC2(C)C [Bexarotene]; conditions: top dose 8 µM
# Description: as §1
# [5] = compound: NC(=O)Nc1cc(-c2cccc(F)c2)sc1C(=O)N[C@H]1CCCNC1 [AZD7762]; conditions: top dose 2 µM
# Description: as §1
# [6] = compound: Cc1ccc2nc(NCCN)c3ncc(C)n3c2c1 [BMS-345541]; conditions: top dose 16 µM
# Description: as §1
# [7] = compound: Oc1nc(-c2ccc(C(F)(F)F)cc2)nc2c1CSCC2 [XAV 939]; conditions: top dose 5 µM; top dose inferred
# Description: as §1
Cell Line,AUC [1],IC50 [1] [µM],AUC [2],IC50 [2] [µM],AUC [3],IC50 [3] [µM],AUC [4],IC50 [4] [µM],AUC [5],IC50 [5] [µM],AUC [6],IC50 [6] [µM],AUC [7],IC50 [7] [µM]
"K5 (thyroid, adherent)",0.839,10.2,0.916,> 16,0.979,> 10.2,0.924,> 8,0.758,0.669,0.921,> 16,0.937,> 5
"KM12 (large intestine, adherent)",0.608,2.04,0.402,0.525,0.89,> 10.2,0.86,7.7,0.471,0.103,0.879,> 16,0.984,> 5
"KU-19-19 (bladder, adherent)",0.944,> 16,0.945,> 16,0.987,> 10.2,0.874,7.75,0.853,1.56,0.883,> 16,0.978,> 5
"KURAMOCHI (ovary, adherent)",0.399,0.506,0.882,> 16,0.905,> 10.2,0.932,> 8,0.623,0.288,0.837,13.2,0.963,> 5
"KYSE-220 (oesophagus, adherent)",0.518,1.12,0.845,12.5,0.941,> 10.2,0.98,> 8,0.679,0.407,0.895,> 16,0.976,> 5
"KYSE-410 (oesophagus, adherent)",0.786,7.39,0.871,> 16,0.961,> 10.2,0.969,> 8,0.603,0.244,0.917,> 16,0.983,> 5
"LB771-HNC (head and neck, adherent)",0.885,> 16,0.93,> 16,0.931,> 10.2,0.717,2.43,0.723,0.641,0.799,10,0.968,> 5
"LB831-BLC (bladder, adherent)",0.756,5.55,0.919,> 16,0.944,> 10.2,0.983,> 8,0.923,> 2,0.959,> 16,0.98,> 5
"LC-1-sq (lung squamous cell carcinoma, adherent)",0.944,> 16,0.914,> 16,0.934,> 10.2,0.97,> 8,0.491,0.117,0.897,> 16,0.983,> 5
"LXF-289 (lung adenocarcinoma, adherent)",0.607,1.95,0.59,1.76,0.817,5.61,0.857,6.31,0.721,0.521,0.906,> 16,0.787,2.14
"LoVo (large intestine, adherent)",0.622,2.18,0.745,5.08,0.936,> 10.2,0.819,4.61,0.585,0.214,0.906,> 16,0.972,> 5
"MC-CAR (haematopoietic neoplasm, suspension)",0.382,0.491,0.91,> 16,0.495,0.623,0.915,> 8,0.546,0.164,0.701,3.42,0.972,> 5
"MDA-MB-415 (breast, adherent)",0.944,> 16,0.914,> 16,0.974,> 10.2,0.958,> 8,0.92,> 2,0.978,> 16,0.959,> 5
"MDST8 (large intestine, adherent)",0.893,> 16,0.978,> 16,0.969,> 10.2,0.988,> 8,0.682,0.4,0.91,> 16,0.986,> 5
"MIA-PaCa-2 (pancreas, adherent)",0.637,2.48,0.687,3.53,0.969,> 10.2,0.755,2.96,0.541,0.164,0.953,> 16,0.982,> 5
"MSTO-211H (mesothelioma, adherent)",0.991,> 16,0.99,> 16,0.978,> 10.2,0.991,> 8,0.656,0.324,0.972,> 16,0.931,> 5
"NALM-6 (B-cell leukaemia, suspension)",0.246,0.217,0.795,6.09,0.496,0.625,0.968,> 8,0.609,0.236,0.839,8.48,0.988,> 5
"NB14 (neuroblastoma, adherent)",0.594,1.78,0.948,> 16,0.7,2.25,0.989,> 8,0.396,0.066,0.934,> 16,0.988,> 5
"NCI-H28 (mesothelioma, adherent)",0.885,> 16,0.948,> 16,0.977,> 10.2,0.981,> 8,0.652,0.379,0.947,> 16,0.956,> 5

Cell Line,AUC [1],IC50 [1] [µM],AUC [2],IC50 [2] [µM],AUC [3],IC50 [3] [µM],AUC [4],IC50 [4] [µM],AUC [5],IC50 [5] [µM],AUC [6],IC50 [6] [µM],AUC [7],IC50 [7] [µM]
"NCI-H226 (lung squamous cell carcinoma, adherent)",0.776,6.7,0.885,> 16,0.7,2.41,0.981,> 8,0.939,> 2,0.913,> 16,0.981,> 5
"NCI-H292 (lung adenocarcinoma, adherent)",0.695,3.99,0.897,> 16,0.787,5.52,0.966,> 8,0.781,1.02,0.886,> 16,0.535,0.398
"NCI-H647 (non-small cell lung carcinoma, adherent)",0.588,1.77,0.722,4.42,0.812,5.81,0.84,5.87,0.593,0.227,0.864,15.1,0.744,1.63
"NCI-H1437 (lung adenocarcinoma, adherent)",0.692,3.55,0.741,5.05,0.904,> 10.2,0.932,> 8,0.733,0.594,0.795,7.74,0.973,> 5
"NCI-H2087 (lung adenocarcinoma, semi-adherent)",0.471,0.829,0.813,9.51,0.906,> 10.2,0.879,> 8,0.906,> 2,0.709,4.09,0.966,> 5
"NCI-H3122 (lung adenocarcinoma, adherent)",0.448,0.717,0.825,9.99,0.552,0.889,0.936,> 8,0.654,0.34,0.85,12.7,0.777,2.07
"NCI-SNU-16 (stomach, suspension)",0.991,> 16,0.99,> 16,0.935,> 10.2,0.991,> 8,0.665,0.339,0.911,> 16,0.983,> 5
"OCUM-1 (stomach, adherent)",0.92,> 16,0.974,> 16,0.986,> 10.2,0.966,> 8,0.452,0.0912,0.981,> 16,0.985,> 5
"OV-90 (ovary, adherent)",0.549,1.41,0.926,> 16,0.895,> 10.2,0.951,> 8,0.666,0.416,0.853,> 16,0.945,> 5
"PFSK-1 (medulloblastoma, adherent)",0.901,> 16,0.902,> 16,0.868,> 10.2,0.986,> 8,0.604,0.246,0.879,> 16,0.984,> 5
"PL4 (pancreas, adherent)",0.812,8.94,0.967,> 16,0.954,> 10.2,0.986,> 8,0.722,0.548,0.93,> 16,0.898,> 5
"RCC10RGB (kidney, adherent)",0.911,> 16,0.964,> 16,0.961,> 10.2,0.871,> 8,0.927,> 2,0.894,> 16,0.931,> 5
"RCM-1 (large intestine, adherent)",0.816,11.3,0.96,> 16,0.984,> 10.2,0.977,> 8,0.774,0.962,0.887,> 16,0.982,> 5
"SAT (head and neck, adherent)",0.961,> 16,0.921,> 16,0.908,> 10.2,0.934,> 8,0.708,0.676,0.87,> 16,0.688,1.42
"SF126 (glioma, adherent)",0.573,1.6,0.711,4.09,0.956,> 10.2,0.935,> 8,0.631,0.293,0.897,> 16,0.98,> 5
"SF268 (glioma, adherent)",0.638,2.49,0.808,9.04,0.884,> 10.2,0.939,> 8,0.591,0.226,0.802,8.59,0.976,> 5
"SF295 (glioma, adherent)",0.571,1.59,0.724,4.58,0.973,> 10.2,0.858,7.44,0.65,0.338,0.898,> 16,0.885,> 5
"SK-MM-2 (myeloma, suspension)",0.783,7.05,0.984,> 16,0.878,> 10.2,0.972,> 8,0.958,> 2,0.767,6.2,0.985,> 5
"SKN (uterus, adherent)",0.716,4.72,0.881,> 16,0.982,> 10.2,0.947,> 8,0.434,0.0796,0.879,> 16,0.879,> 5
